# Data as given in PubChem BioAssay (NCATS).
# Values joined by “and” are separate entries in the source; they are usually repeats but may differ in a detail not shown here. Identical values can stand only once. This list was built around the results that the source calls inconclusive (neither active nor inactive); the mix of calls is not that of the screen. A potency beside an inconclusive call is a rough fit, not a confirmed value. Active and inactive are the calls of the source. Calls come from the whole dose curve; as a rule, active = well fitted cell-killing curve with a large enough effect; inconclusive = small, poorly fitted or top-dose-only effect, or effect the other way; inactive = no such curve, though single readings can be large or run the other way.
# Assay: Viability qHTS for spleen associated tyrosine kinase inhibitor (SYKi) naive MV4-11 cells (AID 1963823); note: nearly all actives have a fitted effect of over 40% in size
# Conditions: MV4-11 AML viability, CellTiter-Glo luminescence, 72 h; series mostly up to 45 µM; viability (% of control): at the top concentration
# Summary of the method: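 CellTiter-Glo luminescence, 10 min room-temperature incubation, gave viability. Cells: naive MV4-11 (500/well), treated 72 hr at 37 C, 5% CO2.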
# Potency is the fitted concentration of half-maximal effect; tags give direction and shape of the fitted curve.
SMILES,viability (% of control),Potency
Nc1ccc(Cl)cc1,inactive: 83.7% [at 91.9 µM],
COC[C@]12CN(C)C3C4[C@H](OC)[C@H]1C3(C(OC)C[C@H]2O)[C@H]1C[C@@]2(O)[C@H](OC(=O)c3ccccc3)[C@@H]1[C@]4(O)[C@@H](O)[C@@H]2OC (some centres undefined),inactive: 82.1%,
CCOC(=O)c1ccnc2cc(C(OCCN3CCCCC3)c3ccccc3Cl)sc12 (centres undefined),,"inconclusive: 29.1 µM [cytotoxic, single point]"
O=c1[nH]c2ccccc2n1C1CCNCC1,,"inconclusive: 0.0668 µM [rising, full curve, poor fit]"
CC1Sc2c(C(=O)O)c(=O)c3cc(F)c(N4CCNCC4)cc3n21 (centres undefined),,"inconclusive: 0.003 µM [rising, full curve, poor fit]"
OC(O)C(Cl)(Cl)Cl,inactive: 78.8%,
CCN(CC)C(=O)N[C@@H]1C=C2c3cccc4[nH]cc(c34)C[C@@H]2N(C)C1,inactive: 63.1%,
C/C=C(\C)C(=O)OC1CC2C(CC=C3CC(OC4CC(OC)C(OC5CC(OC)C(OC6CC(OC)C(OC7CC(OC)C(O)C(C)O7)C(C)O6)C(C)O5)C(C)O4)CCC32C)C2(O)CCC(C(C)=O)C12C (centres undefined),,"inconclusive: 5.51 µM [cytotoxic, partial curve, poor fit]"
C=C(CO)C(=O)O[C@H]1C/C(C)=C/CC/C(CO)=C/[C@H]2OC(=O)C(=C)[C@H]12,inactive: 84.4%,
COc1cc(CCNCc2ccccc2O)c(OC)cc1C#N,,"inconclusive: 16.4 µM [cytotoxic, partial curve, poor fit]"
N#Cc1ccc([C@H]2CCCC[C@H]2O)cc1C(F)(F)F,,"inconclusive: 23.1 µM [cytotoxic, single point]"
CC[C@@H](CO)NC(=O)[C@@H]1C=C2c3cccc4[nH]cc(c34)C[C@H]2N(C)C1,,"inconclusive: 5.96 µM [cytotoxic, partial curve]"
CC(CCc1ccc(O)cc1)O[C@@H]1O[C@H](CO[C@H]2OC[C@](O)(CO)[C@H]2O)[C@@H](O)[C@H](O)[C@H]1O (some centres undefined),,"inconclusive: 2.52 µM [rising, partial curve, poor fit]"
CC[C@H]1C2CC3[C@@H]4N(C)c5ccccc5[C@]45C[C@@H]([C@H]2[C@H]5O)N3[C@H]1O,inactive: 66.4%,
CC(C)(C)NCC(O)c1cc(Cl)c(N)c(Cl)c1 (centres undefined),inactive: 73.4%,
COC1=CC(=O)O[C@@H](CCc2ccccc2)C1,inactive: 82.3%,
CC(=O)C1CCC2C3CCC4C[C@@H](O)CCC4(C)C3CCC12C (some centres undefined),,"inconclusive: 8.2 µM [cytotoxic, partial curve]"
COc1ccc2c3c([nH]c2c1)C(C=C(C)C)N1C(=O)C2CCCN2C(=O)C1C3 (centres undefined),,"inconclusive: 20.2 µM [cytotoxic, single point]"
CCN(CC)CCN1C(=O)CN=C(c2ccccc2F)c2cc(Cl)ccc21,,"inconclusive: 33.5 µM [cytotoxic, single point]"
CCN[C@@H](C)Cc1cccc(C(F)(F)F)c1,,"inconclusive: 0.0422 µM [rising, full curve]"

SMILES,viability (% of control),Potency
O=C1NCN(c2ccccc2)C12CCN(CC1COc3ccccc3O1)CC2 (centres undefined),,"inconclusive: 0.15 µM [rising, full curve, poor fit]"
CCC1NC(=O)C2C(Cl)C(Cl)CN2C(=O)C(CC)NC(=O)CC(c2ccccc2)NC(=O)C(CO)NC1=O (centres undefined),,"inconclusive: 14.2 µM [cytotoxic, single point]"
Fc1cc(F)c2c(c1)[C@H]1C=CC[C@H]1C(c1cccnc1)N2 (some centres undefined),,active: 2.91 µM
C[C@]12CCC(=O)C(O)=C1CC[C@@H]1[C@@H]2CC[C@]2(C)C(=O)CC[C@@H]12,,"inconclusive: 23.7 µM [cytotoxic, single point] and inconclusive: 38.2 µM [cytotoxic, partial curve]"
COC(=O)[C@@]1(C)C(=O)C=C[C@]2(C)c3c(O)cc(C(C)C)cc3[C@H](O)[C@@H](OC(C)=O)C12 (some centres undefined),,active: 11.2 µM
CC1CCCCCC(=O)c2c(O)cc(O)cc2CC(=O)O1 (centres undefined),,"inconclusive: 10.3 µM [cytotoxic, partial curve]"
COc1cc(N)c(Cl)cc1C(=O)NC1CN2CCC1CC2 (centres undefined),inactive: 89.2%,
C#CC(O)(C=CCl)CC (centres undefined),inactive: 78.4%,
CC[C@H](C)[C@H](NC(=O)[C@H]1CCCCN1C)C(=O)N(COC(=O)CC(C)C)[C@H](C[C@@H](OC(C)=O)c1nc(C(=O)N[C@@H](Cc2ccc(O)cc2)C[C@H](C)C(=O)O)cs1)C(C)C,,active: 0.0004 µM
C[C@]12CC[C@H]3[C@@H](CCC4=CC(=O)CC[C@@H]43)[C@@H]1CC[C@@H]2OC(=O)CCC1CCCCC1,,"inconclusive: 21.1 µM [cytotoxic, single point]"
CC(C)(O)[C@H]1O[C@H]2CC[C@@]3(C)[C@@](O)(CC[C@H]4Cc5c([nH]c6ccccc56)[C@@]43C)C2=CC1=O,,"inconclusive: 7.96 µM [cytotoxic, partial curve]"
C=CC/C=C\C/C=C\CCCCCCCc1cc(O)cc(O)c1,,"inconclusive: 5.08 µM [cytotoxic, partial curve]"
NCc1cccnc1,inactive: 79.8%,
C=C[C@H]1CN2CCC1C[C@@H]2[C@@H](O)c1ccnc2ccccc12 (some centres undefined),,"inconclusive: 11.8 µM [cytotoxic, partial curve]"
COc1ccc2[nH]c(-c3ccccc3)c(CCN(C)C)c2c1,,"inconclusive: 29.1 µM [cytotoxic, single point]"
O=C1CN=C(c2ccccc2)c2cc([N+](=O)[O-])ccc2N1,,"inconclusive: 11.9 µM [cytotoxic, single point]"
COc1c(C(C)C)cc2c(c1O)[C@@]1(C(=O)O)CCCC(C)(C)C1CC2 (some centres undefined),,"inconclusive: 20.2 µM [cytotoxic, single point]"
Cc1ccc2c(c1)[C@H]1CN(C)CC[C@H]1N2C(=O)CSc1nnnn1-c1ccc(Cl)cc1,inactive: 77.1%,
C=CCC1([C@H](C)CCC)C(=O)NC(=O)NC1=O,inactive: 62.8% [at 91.9 µM],
